Test results from article PMC4336329 (PLoS ONE, 2015).
The whole screen tested about 310,000 compounds, of which about 14,000 (4.5%) showed an effect of 50% or more. Effects have a minus sign here. The list shows a part of the results.
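Note: peak tail current of the secondary pulse compared with the same well before compound.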

Each molecule was assayed against human ether-à-go-go-related gene (hERG) potassium channel (human, UniProt Q12809) (assay: primary screen, population patch clamp on CHO cells stably expressing hERG).
Sequence of human ether-à-go-go-related gene (hERG) potassium channel (Q12809 whole entry, looked up): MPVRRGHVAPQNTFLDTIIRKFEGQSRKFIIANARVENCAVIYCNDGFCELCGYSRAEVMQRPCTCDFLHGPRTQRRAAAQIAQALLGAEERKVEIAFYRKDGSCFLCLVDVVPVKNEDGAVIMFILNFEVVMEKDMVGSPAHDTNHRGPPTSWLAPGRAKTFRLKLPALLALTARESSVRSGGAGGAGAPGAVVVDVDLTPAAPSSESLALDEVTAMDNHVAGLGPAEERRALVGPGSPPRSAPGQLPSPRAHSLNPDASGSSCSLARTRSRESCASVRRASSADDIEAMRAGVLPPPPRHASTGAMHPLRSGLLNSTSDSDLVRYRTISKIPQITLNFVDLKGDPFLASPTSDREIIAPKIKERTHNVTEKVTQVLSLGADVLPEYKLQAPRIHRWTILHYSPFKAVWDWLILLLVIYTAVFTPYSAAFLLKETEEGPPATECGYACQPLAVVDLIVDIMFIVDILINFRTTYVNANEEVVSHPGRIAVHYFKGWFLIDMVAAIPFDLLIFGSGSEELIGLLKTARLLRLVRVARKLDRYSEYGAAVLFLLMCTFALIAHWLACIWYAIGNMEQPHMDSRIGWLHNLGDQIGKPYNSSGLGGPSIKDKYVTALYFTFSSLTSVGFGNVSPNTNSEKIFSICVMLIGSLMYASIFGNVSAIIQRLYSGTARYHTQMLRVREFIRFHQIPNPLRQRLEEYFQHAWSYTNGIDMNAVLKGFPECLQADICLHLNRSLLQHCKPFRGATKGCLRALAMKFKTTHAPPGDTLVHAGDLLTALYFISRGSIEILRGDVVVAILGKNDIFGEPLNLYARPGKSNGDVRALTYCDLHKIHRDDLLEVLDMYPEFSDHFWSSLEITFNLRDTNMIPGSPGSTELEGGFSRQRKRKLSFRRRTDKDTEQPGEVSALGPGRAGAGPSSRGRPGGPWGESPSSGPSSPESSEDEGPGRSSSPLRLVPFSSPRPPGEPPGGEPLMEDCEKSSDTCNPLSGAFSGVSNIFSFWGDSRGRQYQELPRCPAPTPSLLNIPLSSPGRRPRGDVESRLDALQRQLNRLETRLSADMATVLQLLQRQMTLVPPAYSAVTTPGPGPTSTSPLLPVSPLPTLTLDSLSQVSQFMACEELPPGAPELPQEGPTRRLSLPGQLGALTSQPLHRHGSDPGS
For `CN(Cc1ccc(F)cc1)Cc1nc(-c2ccccc2)no1`, the “hERG current change (%, negative = inhibition) at 10uM” value was -6.11%. In the case of `O=C(CCNS(=O)(=O)c1ccc2c(c1)CCC(=O)N2)NCc1ccc2c(c1)OCO2`, the “hERG current change (%, negative = inhibition) at 10uM” value is reported as 0.608%. For `Cc1ccc(NC(=O)COC(=O)C(NS(=O)(=O)c2ccc(Cl)cc2)C(C)O)cc1C` (stereo not shown), the “hERG current change (%, negative = inhibition) at 10uM” value was 6.76%. With `COc1ccc(/C=C/C(=O)NCc2ccccn2)cc1OC` the “hERG current change (%, negative = inhibition) at 10uM” value was 11.5%. In the case of `Cc1cc(C(=O)NCCCN2CCN(C3CCCCC3)CC2)n(-c2ccccc2)n1`, the “hERG current change (%, negative = inhibition) at 10uM” value is reported as 2.76%. With `O=C(CCn1c(=S)oc2ccccc21)Nc1ccc(F)cc1` the “hERG current change (%, negative = inhibition) at 10uM” value was -7.7%. In the case of `CCN(CC(=O)Nc1ccc2c(c1)OCCO2)C(=O)c1ccc(S(=O)(=O)N(C)C)cc1`, the “hERG current change (%, negative = inhibition) at 10uM” value is reported as 7.76%. For `c1ccc(-c2csc(Cc3nnc4n3CCCCC4)n2)cc1`, the “hERG current change (%, negative = inhibition) at 10uM” value was -36.8%. `CC(C)C(C)NC(=O)COn1nnc2ccc(S(=O)(=O)N3CCOCC3)cc21` (stereo not shown) was tested, and the “hERG current change (%, negative = inhibition) at 10uM” value was 27.1%. `Cc1cc(NC(=O)CSCC(=O)N(C)Cc2ccc(Cl)c(Cl)c2)no1` was tested, and the “hERG current change (%, negative = inhibition) at 10uM” value was -9.94%. With `O=C(O)c1ccc(-n2[nH]c3c(c2=O)CCCC3)cc1` the “hERG current change (%, negative = inhibition) at 10uM” value was 9.74%. `CCOC(=O)C1CCN(C(c2cccc(F)c2)c2sc3nc(C)nn3c2O)CC1` (stereo not shown) was tested, and the “hERG current change (%, negative = inhibition) at 10uM” value was -6.85%. For `O=C1CCCC2=C1C(c1ccc(Cl)cc1)n1c(s/c(=C\c3ccc4ccncc4c3)c1=O)=N2` (stereo not shown), the “hERG current change (%, negative = inhibition) at 10uM” value was 5.13%. With `COc1ccc(N(C(=O)c2cccnc2)S(=O)(=O)c2cccc([N+](=O)[O-])c2)cc1` the “hERG current change (%, negative = inhibition) at 10uM” value was -33.8%. `O=C(Nc1cccc(Cl)c1)c1ccncc1` was tested, and the “hERG current change (%, negative = inhibition) at 10uM” value was 5.13%. In the case of `Cn1cc(C[C@H](NC(=O)OC(C)(C)C)C(=O)N[C@H](CO)Cc2ccccc2)c2ccccc21`, the “hERG current change (%, negative = inhibition) at 10uM” value is reported as -0.554%. With `COc1ccc(C(=O)COc2ncnc3cc(Cl)ccc23)cc1` the “hERG current change (%, negative = inhibition) at 10uM” value was 13.3%. With `O=C(NNC(=O)C1CC1c1ccccc1)c1ccccc1[N+](=O)[O-]` (stereo not shown) the “hERG current change (%, negative = inhibition) at 10uM” value was -12.8%. With `CN(C(=O)COC(=O)CSCc1cccc(Cl)c1)c1c(N)n(Cc2ccccc2)c(=O)[nH]c1=O` the “hERG current change (%, negative = inhibition) at 10uM” value was 23.9%. For `CON/C=C(\C=Nc1ccc(C(F)(F)F)cc1)c1ncc(C(F)(F)F)cc1Cl`, the “hERG current change (%, negative = inhibition) at 10uM” value was -3.76%. With `Cc1ccc(C(=O)Nc2c(C)cc(-c3ccccc3)oc2=O)cc1` the “hERG current change (%, negative = inhibition) at 10uM” value was 2.87%. `O=C(CCn1c(=O)c2ccccc2n(Cc2ccccc2)c1=O)NC1CCN(Cc2ccccc2)CC1` was tested, and the “hERG current change (%, negative = inhibition) at 10uM” value was -42.5%. With `Cc1noc(/C=C/N(C)C)c1S(=O)(=O)N1CCCC(C(=O)NCc2ccc(F)cc2)C1` (stereo not shown) the “hERG current change (%, negative = inhibition) at 10uM” value was 0.399%. `COc1ccc(NC(=O)c2ccc3c(c2)CCN3S(=O)(=O)c2ccccc2)cc1` was tested, and the “hERG current change (%, negative = inhibition) at 10uM” value was -1.18%. In the case of `Cc1ccc2c(c1)CCCN2C(=O)NC1CCCCC1`, the “hERG current change (%, negative = inhibition) at 10uM” value is reported as -4.35%. `COc1cccc(NC(=O)c2cc(-c3ccccn3)nc3ccccc23)c1` was tested, and the “hERG current change (%, negative = inhibition) at 10uM” value was 9.45%. With `CCOc1[nH]n(-c2ccc(Cl)cc2)c(=O)c1C=Nc1ccc(O)cc1` the “hERG current change (%, negative = inhibition) at 10uM” value was 1.14%. In the case of `CCOCCCNC(=O)CN1C(=O)C(CC)Oc2ccccc21` (stereo not shown), the “hERG current change (%, negative = inhibition) at 10uM” value is reported as 1.94%. `CC(NCC(=O)Nc1cc(Cl)cc(Cl)c1)c1ccccc1.O=C(O)C(=O)O` (stereo not shown) was tested, and the “hERG current change (%, negative = inhibition) at 10uM” value was -0.749%. With `COc1cc(-c2csc(N3CCOCC3)n2)cc(OC)c1OC` the “hERG current change (%, negative = inhibition) at 10uM” value was 13.3%. `O=C(O)CC1S/C(=N\N=C2CCCCCCC2)N(c2ccccc2)C1=O` (stereo not shown) was tested, and the “hERG current change (%, negative = inhibition) at 10uM” value was 28.8%. With `CCOC(=O)CCc1c(C)c2ccc(OCc3ccc([N+](=O)[O-])cc3)cc2oc1=O` the “hERG current change (%, negative = inhibition) at 10uM” value was -3.1%. `O/N=C(/c1ccc(Cl)cc1)C1CC1c1ccccc1` (stereo not shown) was tested, and the “hERG current change (%, negative = inhibition) at 10uM” value was 2.06%. `Nc1ccc(CCc2nc3ccccc3o2)cc1` was tested, and the “hERG current change (%, negative = inhibition) at 10uM” value was -0.017%. In the case of `Cc1ccc(C2=CCNCC2)cc1.Cl`, the “hERG current change (%, negative = inhibition) at 10uM” value is reported as 17.1%. `Cn1nc(C(=O)NCCOc2ccccc2)c2ccccc2c1=O` was tested, and the “hERG current change (%, negative = inhibition) at 10uM” value was -15.1%. `COc1ccc(C2C(C(C)=O)=C(O)C(=O)N2c2ccc(C)cc2)cc1` (stereo not shown) was tested, and the “hERG current change (%, negative = inhibition) at 10uM” value was 17.6%. In the case of `c1ccc(-c2noc(-c3ccncc3)n2)nc1`, the “hERG current change (%, negative = inhibition) at 10uM” value is reported as 4.49%. In the case of `Nc1ccn([C@@H]2CS[C@H](CO)O2)c(=O)n1`, the “hERG current change (%, negative = inhibition) at 10uM” value is reported as 10.3%. In the case of `COc1ccc(C(=O)COC(=O)CN2C(=O)NC(C)(C)C2=O)cc1OC`, the “hERG current change (%, negative = inhibition) at 10uM” value is reported as -1.87%. For `c1csc(-c2nnc(Cc3cccc4ccccc34)o2)c1`, the “hERG current change (%, negative = inhibition) at 10uM” value was -8.86%. `COc1ccc(C2N(c3cc(Cl)ccc3OC)C(=O)C3CCCN32)cc1OC` (stereo not shown) was tested, and the “hERG current change (%, negative = inhibition) at 10uM” value was -4.91%. With `Cc1cc(C(=O)N/N=C/c2c[nH]c3ccccc23)c(C)o1` the “hERG current change (%, negative = inhibition) at 10uM” value was -27.4%. In the case of `O=S(=O)(N1CCOCC1)N1CCN(c2ccccc2F)CC1`, the “hERG current change (%, negative = inhibition) at 10uM” value is reported as -8.17%. With `CCOc1cc(NC(=S)NCCCN2CCOCC2)c(OCC)cc1NC(=O)c1cccc(C)c1` the “hERG current change (%, negative = inhibition) at 10uM” value was 9.73%. For `O=C(CN1CCN(c2ccccc2)CC1)NC(=O)NCc1ccccc1`, the “hERG current change (%, negative = inhibition) at 10uM” value was 9.43%. `CC(C)(Cl)[N+](=O)[O-]` was tested, and the “hERG current change (%, negative = inhibition) at 10uM” value was 12.5%. For `Cc1cc(=O)oc2cc(OCC(=O)OCC(=O)Nc3ccccc3Br)ccc12`, the “hERG current change (%, negative = inhibition) at 10uM” value was 14.5%. For `Cc1ccc(-c2[nH]ncc2C(=O)c2ccccc2C)c(O)c1`, the “hERG current change (%, negative = inhibition) at 10uM” value was -4.84%. `COc1ccccc1NS(=O)(=O)c1cccc(C(=O)N/N=C/c2ccc(NC(C)=O)cc2)c1` was tested, and the “hERG current change (%, negative = inhibition) at 10uM” value was 20.1%. With `COc1ccccc1N(CC(=O)N1CCc2ccccc2C1)S(C)(=O)=O` the “hERG current change (%, negative = inhibition) at 10uM” value was 13.6%. For `CCCC1S/C(=N/N=C/c2ccc(C)cc2)N(Cc2ccc(OC)cc2)C1=O` (stereo not shown), the “hERG current change (%, negative = inhibition) at 10uM” value was 9.81%. For `O=C(O)c1cnn(-c2nc(-c3ccc(Cl)c(Cl)c3)cs2)c1C(F)(F)F`, the “hERG current change (%, negative = inhibition) at 10uM” value was 18%. `CCC(=O)Nc1nc(C)c(C(=O)Nc2cccc(Cl)c2)s1` was tested, and the “hERG current change (%, negative = inhibition) at 10uM” value was 8.17%. In the case of `COc1ccc(N(CC(=O)Nc2cccnc2)S(=O)(=O)c2ccccc2)cc1OC`, the “hERG current change (%, negative = inhibition) at 10uM” value is reported as -9.62%.
